Test results: PubChem BioAssay AID463173 (ICCB-Longwood Screening Facility, Harvard Medical School, 2010)
Hit rate of the full screen: of about 52,000 compounds, about 1,700 (3.3%) were called active. Cut-off read from the data, not from the text of the source: active = survival mostly below about 52% (no sharp cut-off); inactive = mostly above about 56%. The list shows a part of the results.

These compounds were tested on Wild type (assay: growth inhibition of S. aureus wild type versus tarO mutant, primary screen, teichoic acid synthesis inhibitors, RN4220, OD600 (AID 463173)). Conditions: S. aureus RN4220 wild type/DeltatarO growth, OD600, 18 h, active compounds read low, screened at 18.75 µg/mL (by protocol).

Structure (SMILES)	survival
CCC(C(=O)NCc1ccc2c(c1)CCN2C(=O)c1ccc(F)cc1)c1ccccc1 (stereo not drawn)	inactive: 59%
CCc1ccc(C2CC(=O)c3c([nH]c(C(=O)OCc4ccc(C)cc4)c3C)C2)cc1 (stereo not drawn)	inactive: 85%
Cc1noc(-c2ccc(-c3noc(-c4ccccc4)n3)cc2)n1	active: -6%
O=C(NCCc1ccc(Cl)cc1)c1ccc(CS(=O)(=O)Cc2ccc(Cl)cc2)o1	inactive: 83%
CCc1nc2ccc(C(=O)NCCc3ccc(OC)cc3OC)cc2nc1CC	inactive: 54%
CCOC(=O)c1cc(-c2ccc(C)cc2)n(CCC(=O)Nc2cc(Cl)ccc2C)c1C	inactive: 93%
CC1CCN(S(=O)(=O)c2ccc3[nH]cc(C(=O)NCc4ccc(F)cc4)c(=O)c3c2)CC1	inactive: 81%
O=C(CSc1nccc(=O)[nH]1)Nc1ccc(Cl)cc1	inactive: 110%
CC(=O)c1cc(-c2ccccc2)n(CCC(=O)Nc2nc3c(C)cccc3s2)c1C	inactive: 78%
CCOc1ccc(CCNC(=O)c2cc(Nc3ccc(C)cc3C)nc3ccccc23)cc1OCC	inactive: 135%
Cc1ccc(N2CC(NC(=O)Cc3ccc(F)cc3)CC2=O)cc1 (stereo not drawn)	inactive: 85%
O=C1Cc2cc(S(=O)(=O)N3CCCCC3)cc3c2N1CCC3	inactive: 81%
COc1ccccc1NC(=O)Cn1c(=O)n(-c2cccc(Cl)c2)c(=O)c2sc3ccccc3c21	inactive: 89%
COc1cc2[nH]c(=O)n(Cc3ccc(C(=O)NCc4ccc(C)cc4)cc3)c(=O)c2cc1OC	inactive: 68%
Cc1cccc(CSc2nc(=O)c3c(n2C)NC(=O)CC3c2cccc(O)c2)c1 (stereo not drawn)	inactive: 85%
Cc1ccc2c(c1)sc1nc(-c3cc4cc(Cl)ccc4oc3=O)cn12	inactive: 87%
O=C(Cn1c(=O)n(Cc2ccc(C(=O)NCc3ccc4c(c3)OCO4)cc2)c(=O)c2ccccc21)Nc1cccc(Cl)c1	inactive: 104%
CC1=C(C(=O)Nc2cccc(C(F)(F)F)c2)C2(CCCCCC2)OC1=O	active: 0%
CC(C)CCn1c(=O)c2sccc2n2c(CCCC(=O)Nc3ccc(C(C)C)cc3)nnc12	inactive: 94%
COc1ccc(N2CCN(c3nc4ccccc4n4c(C)nnc34)CC2)cc1	inactive: 93%
CCOC(=O)CC(NS(=O)(=O)c1cc(-c2cc(C)no2)ccc1C)c1ccc(C)cc1 (stereo not drawn)	inactive: 91%
CCOc1ccc2nc(NC(=O)c3nc(SCc4ccc(C)cc4)ncc3Cl)sc2c1	inactive: 90%

Structure (SMILES)	survival
CCOc1ccc(C(=O)Nc2ccc3nc4c(c(Nc5ccccc5OC)c3c2)CCCC4)cc1	inactive: 85%
Cc1cccc(C)c1NC(=O)CN(C)S(=O)(=O)c1ccc2[nH]c3c(c2c1)CCCC3	inactive: 131%
Cc1ccc2occ(CC(=O)Nc3c(C(=O)Nc4ccc(Cl)cc4)oc4ccccc34)c2c1	inactive: 77%
CC(C)COc1ccc(C(=O)N2CCC(c3nc4ccccc4s3)CC2)cc1	inactive: 42%
O=C(CC1N=C2c3ccccc3N=C(SCC(=O)Nc3ccccc3F)N2C1=O)NCc1ccc2c(c1)OCO2 (stereo not drawn)	inactive: 69%
Cc1ccc(CSc2nncn3c2cc2sccc23)cc1	inactive: 87%
O=C1CN=C(Nc2ccc(F)cc2)N1C1CCCC1	inactive: 99%
CN(C(=O)CSc1nc2ccccc2[nH]1)c1ccc(F)cc1	inactive: 75%
COc1ccc(OC)c(S(=O)(=O)NCc2ccc3c(c2)CCN3C(=O)c2cccc(C)c2)c1	inactive: 60%
Oc1ccc(Br)cc1C=Nc1ccc2[nH]ncc2c1	inactive: 104%
CCCOCc1cc(CN2CCN(c3ccccc3OC)CC2)c(O)c2ncccc12	inactive: 99%
O=C(Cn1c(=O)sc2ccccc21)OCc1ccccc1	inactive: 118%
CCOC(=O)c1c(NC(=O)C(C)Sc2cn(CCNC(=O)c3ccc(OC)cc3)c3ccccc23)sc2c1CCC2 (stereo not drawn)	inactive: 75%
Cc1ccc(CSCCNC(=O)CN(c2cccc(C)c2C)S(=O)(=O)c2ccccc2)cc1	inactive: 67%
O=C(NCc1ccc(Cl)cc1)c1cnc(N2CCOCC2)c2ccccc12	inactive: 74%
COc1ccccc1NC(=O)C1=C(C)Nc2nc(SCC(=O)c3ccc(C)cc3)nn2C1c1ccc(F)cc1 (stereo not drawn)	inactive: 127%
Cc1ccc2c(c1)cc(CN(Cc1ccc3c(c1)OCO3)S(=O)(=O)c1ccccc1)c1nnnn12	inactive: 104%
Cc1cccc(N2C(=O)N(Cc3ccc(C(C)(C)C)cc3)c3ccccc3S2(=O)=O)c1	inactive: 55%
CC1CCCN(S(=O)(=O)c2cc(C(=O)NCCc3ccccc3)n(C)c2)C1 (stereo not drawn)	inactive: 75%
COc1ccc(CNC(=O)c2ccc3c(c2)CCN3S(=O)(=O)c2ccccc2)cc1	inactive: 80%
COC(=O)C1=CNC=C(C(=O)OC)C1c1ccc(C(F)(F)F)cc1	inactive: 116%
Cc1ccccc1CNC(=O)c1ccc(Cn2c(SCc3ccccc3)nc3cccnc32)cc1	active: -2%

Structure (SMILES)	survival
O=C(NCc1cccnc1)C1CCCCC1	inactive: 108%
CC(=O)c1cccc(NC(=O)Nc2cc3c(cc2N2CCCC2)n(C)c(=O)n3C)c1	inactive: 137%
CCc1ccc(C(=O)Nc2cccc(-c3nc4cc(C(C)C)ccc4o3)c2)cc1	inactive: 25%
Cc1ccc(Cl)cc1NC(=O)c1ccc2nc(CCc3ccccc3)oc2c1	inactive: 88%
Cc1ccc(-c2nc(CNC(=O)NC3CCCCC3)c(C)o2)cc1	inactive: 65%
COc1ccc(CNc2nc(-c3ccco3)nn2C(=O)c2ccccc2C)cc1	inactive: 86%
CC1C(=O)CC(c2ccco2)NC1c1ccco1 (stereo not drawn)	inactive: 103%
CCOc1ccc(Nc2oc(-c3ccc(COc4ccc(C)cc4)o3)nc2C#N)cc1	inactive: 83%
CCn1cc(C(=O)NCc2ccccc2Cl)c(=O)c2cc(S(=O)(=O)N3CCCCCC3)ccc21	inactive: 69%
CCCCC(=O)Nc1ccc(C(=O)OCc2cc(=O)n3ccsc3n2)cc1	inactive: 83%
O=S(=O)(c1ccccc1)c1nc(-c2ccco2)oc1SCc1ccc(F)cc1	inactive: 83%
COc1ccc(NC(=O)c2nnn(CC(=O)Nc3cc(C)cc(C)c3)c2N)c(OC)c1	inactive: 139%
COc1ccc(Cn2c(SCc3ccc(C(=O)NCc4cccs4)cc3)nc3ccncc32)cc1	inactive: 81%
CCN(C(=O)c1cc(S(=O)(=O)N2CCCC2)cn1C)c1ccc(OC)cc1	inactive: 79%
CCOC(=O)c1sc2cccc(F)c2c1S(=O)(=O)Nc1ccccc1F	inactive: 124%
O=C(CCCn1c(=O)[nH]c2ccsc2c1=O)N1CCN(c2ccc(Cl)cc2)CC1	inactive: 63%
Cc1ccc(C)c(NC(=O)Cn2c(=O)n(CC(=O)NCCc3ccccc3)c(=O)c3ccccc32)c1	inactive: 78%
O=C(CSc1nnc(-c2ccc(Cl)cc2)c(-c2ccc(Cl)cc2)n1)NC1CCCC1	inactive: 65%
Cc1ccc(NC(=O)Cn2c(=O)cc(-c3ccccc3)c3c(C)nn(C)c32)c(Cl)c1	inactive: 80%
CCOCCCNC(=O)Cn1nc(CC)n2c(cc3c(OC)cccc32)c1=O	inactive: 86%
COC(=O)c1ccc(NC(=O)CSc2nc3cc4ccccc4cc3[nH]2)cc1	inactive: 80%
N#Cc1ccccc1NC(=O)C(=O)NCC(c1cccnc1)N1CCc2ccccc21 (stereo not drawn)	inactive: 90%

Structure (SMILES)	survival
COc1cc(OC)c(NC(=O)C(C)n2nc(-c3ccc(C)cc3)c3c(c2=O)CCCC3)cc1Cl (stereo not drawn)	inactive: 76%
O=C(Nc1cc(F)ccc1F)c1cnn2c(C(F)F)cc(-c3ccccc3)nc12	inactive: 143%
CCOC(=O)CC(NC(=O)CCc1c(C)nc2cc(-c3ccccc3)nn2c1C)c1ccc(C)cc1 (stereo not drawn)	inactive: 128%
Cc1ccc(NC(=O)C2CCCN(c3ncnc4onc(C)c34)C2)cc1Cl (stereo not drawn)	inactive: 121%
O=C(c1ccccc1)c1ccc2nc(N3CCN(c4ccc(F)cc4)CC3)c3nncn3c2c1	inactive: 89%
COc1ccccc1-c1cc2nc(C)c(CCC(=O)NC3CCCCC3)c(C)n2n1	inactive: 73%
COc1ccc(CCNC(=O)c2cc3n(n2)C(C(F)(F)F)CC(C2CC2)N3)cc1OC (stereo not drawn)	inactive: 93%
Cc1ccc(S(=O)(=O)c2nnn3c2nc(N2CCN(c4cccc(C)c4C)CC2)c2ccccc23)cc1C	inactive: 66%
COc1cc(C=C(C#N)C#N)ccc1OC(=O)c1ccco1	inactive: 105%
COc1ccc(CCNC(=O)CSc2nnc(-c3ccc(C)cc3)c(-c3ccc(C)cc3)n2)cc1OC	inactive: 69%
CCCCOc1cccc(C(=O)N(Cc2ccc(Cl)cc2)C2CCS(=O)(=O)C2)c1 (stereo not drawn)	inactive: 93%
Cc1ccc(-c2noc(-c3ccc(NCC4CCCO4)c([N+](=O)[O-])c3)n2)cc1 (stereo not drawn)	inactive: 88%
CCNC(=S)N1CCN(CC)CC1	inactive: 114%
CS(=O)(=O)n1nc(-c2ccco2)nc1N	inactive: 94%
CC(=O)c1ccc(N2CCN(C(=O)CS(=O)(=O)c3cccc4nsnc34)CC2)cc1	inactive: 71%
COc1cccc(C2=NN(S(C)(=O)=O)C(c3cn(-c4ccccc4)nc3-c3cccs3)C2)c1 (stereo not drawn)	inactive: 158%
COc1ccc(CNC(=O)CN(C)c2nn3c(=O)cc(C)nc3s2)cc1	inactive: 86%
Cc1cc(=O)[nH]c2nnc(SCCC(C)C)n12	inactive: 72%
COc1ccccc1NC(=O)N1CC=C(c2c[nH]c3ccccc23)CC1	inactive: 25%
COc1ccc(C(=O)c2cn(Cc3ccccc3F)c3ccc(F)cc3c2=O)cc1	inactive: 97%
CC1(C)CCCC2(C)C1CCC(C)(O)C2CCO (stereo not drawn)	inactive: 111%
Cc1ccc(-c2nnc(Nc3ccc(Cl)cc3)c3ccccc23)cc1S(=O)(=O)NCC1CCCO1 (stereo not drawn)	inactive: 114%
